Data published in paper PMC4336329 (PLoS ONE, 2015).
The whole screen tested about 310,000 compounds, of which about 14,000 (4.5%) showed an effect of 50% or more. Effects have a minus sign here. The list shows a part of the results.

target: human ether-à-go-go-related gene (hERG) potassium channel (human, UniProt Q12809); assay: primary screen, population patch clamp on CHO cells stably expressing hERG
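Also: peak tail current of the secondary pulse compared with the same well before compound.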

Sequence of human ether-à-go-go-related gene (hERG) potassium channel (Q12809 whole entry, looked up): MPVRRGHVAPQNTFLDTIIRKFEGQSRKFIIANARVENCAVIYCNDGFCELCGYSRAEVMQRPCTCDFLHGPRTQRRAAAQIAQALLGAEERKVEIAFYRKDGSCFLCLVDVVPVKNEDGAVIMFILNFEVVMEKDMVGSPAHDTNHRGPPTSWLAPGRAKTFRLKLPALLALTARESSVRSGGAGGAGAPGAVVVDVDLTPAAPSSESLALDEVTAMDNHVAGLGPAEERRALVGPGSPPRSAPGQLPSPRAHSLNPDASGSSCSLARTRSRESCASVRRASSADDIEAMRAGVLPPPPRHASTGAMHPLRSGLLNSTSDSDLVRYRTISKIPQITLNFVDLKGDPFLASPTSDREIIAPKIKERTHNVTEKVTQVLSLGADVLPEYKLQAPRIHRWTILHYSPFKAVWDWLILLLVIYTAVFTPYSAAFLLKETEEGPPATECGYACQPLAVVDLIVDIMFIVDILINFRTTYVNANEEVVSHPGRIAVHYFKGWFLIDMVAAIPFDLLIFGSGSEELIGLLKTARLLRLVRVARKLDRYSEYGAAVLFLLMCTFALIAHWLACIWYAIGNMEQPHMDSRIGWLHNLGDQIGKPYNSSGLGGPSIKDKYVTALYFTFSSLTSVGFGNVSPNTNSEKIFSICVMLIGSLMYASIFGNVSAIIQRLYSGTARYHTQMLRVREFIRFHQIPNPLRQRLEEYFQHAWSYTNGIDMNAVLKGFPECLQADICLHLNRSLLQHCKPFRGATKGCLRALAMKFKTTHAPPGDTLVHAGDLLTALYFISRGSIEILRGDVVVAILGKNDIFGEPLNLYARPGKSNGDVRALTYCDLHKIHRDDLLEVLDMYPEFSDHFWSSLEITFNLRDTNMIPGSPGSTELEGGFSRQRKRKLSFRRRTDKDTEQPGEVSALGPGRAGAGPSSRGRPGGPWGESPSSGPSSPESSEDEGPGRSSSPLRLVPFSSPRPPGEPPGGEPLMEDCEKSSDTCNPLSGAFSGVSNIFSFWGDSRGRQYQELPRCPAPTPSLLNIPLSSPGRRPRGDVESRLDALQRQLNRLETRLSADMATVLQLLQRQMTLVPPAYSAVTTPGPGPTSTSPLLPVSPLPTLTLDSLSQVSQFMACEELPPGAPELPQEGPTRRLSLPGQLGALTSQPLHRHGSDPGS

SMILES	hERG current change (%, negative = inhibition) at 10uM [%]
Cc1ccc(NC(=O)CSCC(=O)Nc2cccc(S(=O)(=O)N3CCCCCC3)c2)cc1	-24.5
Cc1cc(SCC(=O)N/N=C/c2ccc(O)cc2O)c(C)cc1Br	4.53
COc1ccccc1OCC#CCN1CCOCC1.O=C(O)C(=O)O	18.9
COc1ccc(C2CC(=O)N3C(=C2C#N)SCC3(O)c2ccccc2)cc1 (stereo not drawn)	-24.5
Cc1ccc(C(=O)N(CC(=O)NC2CCCC2)c2ccc3c(c2)OCCO3)s1	-17.1
O=C(NCc1ccco1)C1OCCc2ccccc21 (stereo not drawn)	-2.06
COc1ccc(OCC(=O)OCC(=O)NCc2ccco2)cc1	-4.81
Cc1ccc(NC(=S)N2CCOCC2)cc1	-27.9
Cc1ccc(N(CC(=O)NC2CCCC2)C(=O)CCCC(=O)Nc2ccccn2)cc1C	2.86
O=C(O)c1ccccc1SCc1cn2ccccc2n1	4.74
Cc1ccc(S(=O)(=O)NCCc2ccncc2)cc1	-0.657
CN1CCN(C(=S)NC(=O)c2cccc([N+](=O)[O-])c2)CC1	25.5
CN(C(=O)COc1cc(=O)n(C)c2ccccc12)c1cccc(Cl)c1	-19
CN(C)c1ccc(CNC(=O)CN(C)S(=O)(=O)c2ccc3c(c2)c(=O)n(C)c(=O)n3C)cc1	9.67
Cc1csc2nc(CNC(=O)c3ccco3)cn12	24.9
CCOC(=O)C1=C(c2ccccc2)NC(=O)NC1c1ccc(O)c(Cl)c1 (stereo not drawn)	4
Cc1ccc(C2=N/C(=C\c3ccc(F)cc3)C(=O)N2)cc1	-1.1
Cc1ccc(NC(=O)C2=COCCO2)cc1S(=O)(=O)N1CCOCC1	-0.0399
Cc1cc(C(=O)NNC(=S)Nc2cccc(C(F)(F)F)c2)nn1C	30.1
COC(=O)c1sccc1NC(=O)c1ccoc1C	8.11
COc1ccc2cc(C(=O)Nc3ccc(F)cc3)sc(=O)c2c1OC	7.9
N#Cc1ccccc1NC(=O)c1ccccc1OCC(=O)Nc1ccc2c(c1)oc1ccccc12	16.2
CCC(=O)Nc1sc(C(=O)OC)c(C)c1C(=O)OC	7.74

SMILES	hERG current change (%, negative = inhibition) at 10uM [%]
COc1ccc(-c2nc(N3CCCCCC3)sc2C(=O)c2ccccc2)cc1	4.37
C#CC(C)(CC)NC(=O)Cn1nnc(-c2cccc(C(F)(F)F)c2)n1 (stereo not drawn)	-10.4
CCCCS(=O)(=O)N1CCCC(C(=O)NCCc2ccccc2)C1 (stereo not drawn)	12.7
CC1CCCC(C)N1C(=O)CSc1nnc(COc2ccccc2)n1-c1ccccc1 (stereo not drawn)	1.37
NC(=O)C1CCN(C(=O)CCc2nc3ccccc3c(=O)[nH]2)CC1	-1.48
O=C(C[N+]1(CC#Cc2ccccc2)CCOCC1)c1ccccc1.[Br-]	35.8
CCN(CCCNC(=O)CN(C)S(=O)(=O)c1cccc2nsnc12)c1ccccc1	-14.8
O=C(c1ccncc1)N(Cc1ccccc1)Cc1nc2ccccc2c(=O)[nH]1	-10.3
CCc1ccc(NC(=O)Nc2cccc(OC)c2)cc1	7.44
CCC(C(=O)OCCOCCN(CC)CC)c1ccccc1 (stereo not drawn)	1.01
O=C(NCc1cccnc1)C(=O)N/N=C/c1ccc([N+](=O)[O-])cc1	23.4
COc1ccc(C)cc1NC(=O)CSCc1ccccc1C	-4
CCOC(=O)N1CCN(C(=O)C2CCN(S(=O)(=O)c3cc(C)ccc3OC)CC2)CC1	12.6
CCCCN(C)C(=O)C1CCN(Cc2cccc(OCc3ccccc3)c2)CC1.O=C(O)C(=O)O	-67.7
CCCc1cc2c(=O)c(-c3ccccn3)coc2cc1OC	0.316
CCn1c(SCC(=O)Nc2ccc(NC(C)=O)cc2)nc2c([nH]c3ccccc32)c1=O	20.2
CC(Oc1ccccc1F)c1nnc(SCC(=O)Nc2ccc(N3CCOCC3)cc2)o1 (stereo not drawn)	-13.8
Cn1c(CN2CCOCC2)nc2cc(NC(=O)COc3ccccc3)ccc21	-0.505
CC1CCN(S(=O)(=O)c2ccc3c(c2)CCN3C(=O)C2CCC2)CC1	10.1
COc1cccc(NC(=S)Nc2ccc(Br)cc2Cl)c1	18.1
CCOC(=O)C(CC)(CC)C(=O)/C=C/c1ccc(Br)cc1	5.02
CCn1c(SCC(=O)NC2CCCc3ccccc32)nnc1-c1ccncc1 (stereo not drawn)	-9.78
CCCCCCCN1CCC(=O)N([C@H](CO)Cc2ccccc2)CC1	-78.8

SMILES	hERG current change (%, negative = inhibition) at 10uM [%]
COc1ccc(CN(Cc2cc3cc4c(cc3[nH]c2=O)OCO4)C(=O)NC2CCCCC2)cc1	-17.6
COc1ccc(OCC(O)CN2CCCCCC2)cc1 (stereo not drawn)	9.18
COC(=O)c1c(NC(=O)COC(=O)c2ccc(O)cc2)sc2c1CCCCC2	17
O=c1cc(CSc2ccc(Cl)cc2)nc(-c2ccccn2)[nH]1	-0.0469
O=C(CC1CCCCC1)Nc1ccc(-c2ccc3nncn3n2)cc1	6.41
COc1ccc(S(=O)(=O)N2CC3CCCN3c3ccc(C(F)(F)F)cc32)cc1 (stereo not drawn)	6.9
CCc1ccc(S(=O)(=O)NCc2csc(-c3ccccc3)n2)s1	-9.83
CNC(=O)/C=C/c1cccc(C(F)(F)F)c1	4.99
O=C(NCCC1=CCCCC1)NC1CCCCC1	8.08
O=C(Cn1c(SCC(=O)NC2CCCC2)nnc1-c1ccncc1)Nc1ccc2c(c1)OCO2	-11.7
CCCC(=O)Nc1sc(C)c(C)c1C#N	2.9
O=C(NCCCn1ccnc1)c1ccc(Br)c(S(=O)(=O)N2CCOCC2)c1	-7.41
O=C(Nc1ccccc1OC(=O)N1CCOCC1)N1CCOCC1	3
COc1ccc(NS(=O)(=O)c2ccc(NS(C)(=O)=O)cc2)cc1	-16.2
Clc1ccc(C2CC(c3cccs3)n3ncnc3N2)cc1 (stereo not drawn)	-31.8
COc1ccc(C(CNC(=O)c2ccc(Cl)c(NC(=O)c3cccs3)c2)N2CCCC2)cc1 (stereo not drawn)	-70.9
Clc1nc(NCc2ccco2)nc(N2CCCCC2)n1	33.5
COc1ccc2c(c1)CC/C(=C\c1ccc(OC)c(Cn3cccn3)c1)C2=O	-13.1
Cn1cccc1C(=O)OCC(=O)Nc1ccc2c(c1)OCO2	20.5
O=C(Cc1ccccc1F)Nc1ccc(SC(F)F)cc1	14
Cc1ccc(NC(=O)COC(=O)COc2cccc3c2OC(C)(C)C3)cc1C	-13.9
CCOC(=O)C1CCCN(S(=O)(=O)c2ccc3c(c2)CC(C)N3C(=O)C2CC2)C1 (stereo not drawn)	9.65
COc1cc(/C=C2\C(=O)N(c3ccc(S(N)(=O)=O)cc3)N=C2C)ccc1OC(=O)c1ccco1	8.12

SMILES	hERG current change (%, negative = inhibition) at 10uM [%]
O=C(NNC(=O)c1cccc2ccccc12)c1ccc2c(c1)OCO2	4.09
COC(=O)c1cc(NC(=O)c2cccnc2)cc(C(=O)OC)c1	11
Cc1nc(-c2ccc(F)cc2)c(CC(=O)N(C)CC(=O)Nc2ccccc2C(F)(F)F)s1	2.06
CCC(C)NC(=O)c1cc2c(=O)[nH]c3ccc(C)cc3c2s1 (stereo not drawn)	18
N/C(=N\c1nc2ccccc2o1)NC(=O)c1ccccc1Br	12.5
O=C(C1CC(=O)N(c2ccccc2)C1)N1CCN(c2ccccc2)CC1 (stereo not drawn)	-29
CCCCCCCCCCCCN1[C@@H](CC(=O)OC)c2cc(F)cc(F)c2S1(=O)=O	11.1
Cc1nc(-c2cccc3ccccc23)ccc1C(=O)O	4.26
CC(C)(C)c1ccc(O)c(O)c1	17.5
CC(=O)N1CCc2cc(S(=O)(=O)NCCC3=CCCCC3)ccc21	12
O=C(C1CCCN(Cc2ccccc2F)C1)N1CCCC1.O=C(O)C(=O)O (stereo not drawn)	11.3
S=C(NCc1ccco1)Nc1ccc(N2CCOCC2)cc1	0.718
COc1ccc(-c2c[nH]c(=O)[nH]c2=O)cc1OC	5.75
CCOC(=O)c1cnc2ccc(C(=O)OC)cc2c1Nc1ccc2c(c1)OCCO2	16.1
COc1ccc(C2=NO[C@@H]3[C@@H]4C[C@@H]([C@H]5C(=O)N(C)C(=O)[C@@H]45)[C@H]23)c(OC)c1	9.04
Cn1nccc1C(=O)Nc1ccccc1C(=O)O	7.27
CC(=O)c1ccc(NC(=O)COC(=O)c2nc(Cl)ccc2Cl)cc1	12
CCOc1ccccc1CN1CCNC(=O)C1CC(=O)N(C)CCc1cnn(C)c1 (stereo not drawn)	3.42
CC(CN(C)Cc1nc(Cc2cccc(C(F)(F)F)c2)no1)CN1CCCC1 (stereo not drawn)	-63.2
C=CCOc1nc2c(c(=O)n(C)c(=O)n2C)n1Cc1c(Cl)cccc1Cl	2.49
CCCC(=O)n1nc(NCc2ccc(OC)cc2)nc1NCc1ccc(OC)cc1	4.04
